Reference: publication PMC4336329 (PLoS ONE, 2015)
The campaign covered roughly 310,000 compounds. About 14,000 (4.5%) showed an effect of 50% or more. The effect is printed as a negative number. This is one part of the list.

Molecular target: human ether-à-go-go-related gene (hERG) potassium channel (human, UniProt Q12809)
Test: primary screen, population patch clamp on CHO cells stably expressing hERG
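Also: peak tail current of the secondary pulse compared with the same well before compound.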

Chain of human ether-à-go-go-related gene (hERG) potassium channel (Q12809 whole entry, looked up): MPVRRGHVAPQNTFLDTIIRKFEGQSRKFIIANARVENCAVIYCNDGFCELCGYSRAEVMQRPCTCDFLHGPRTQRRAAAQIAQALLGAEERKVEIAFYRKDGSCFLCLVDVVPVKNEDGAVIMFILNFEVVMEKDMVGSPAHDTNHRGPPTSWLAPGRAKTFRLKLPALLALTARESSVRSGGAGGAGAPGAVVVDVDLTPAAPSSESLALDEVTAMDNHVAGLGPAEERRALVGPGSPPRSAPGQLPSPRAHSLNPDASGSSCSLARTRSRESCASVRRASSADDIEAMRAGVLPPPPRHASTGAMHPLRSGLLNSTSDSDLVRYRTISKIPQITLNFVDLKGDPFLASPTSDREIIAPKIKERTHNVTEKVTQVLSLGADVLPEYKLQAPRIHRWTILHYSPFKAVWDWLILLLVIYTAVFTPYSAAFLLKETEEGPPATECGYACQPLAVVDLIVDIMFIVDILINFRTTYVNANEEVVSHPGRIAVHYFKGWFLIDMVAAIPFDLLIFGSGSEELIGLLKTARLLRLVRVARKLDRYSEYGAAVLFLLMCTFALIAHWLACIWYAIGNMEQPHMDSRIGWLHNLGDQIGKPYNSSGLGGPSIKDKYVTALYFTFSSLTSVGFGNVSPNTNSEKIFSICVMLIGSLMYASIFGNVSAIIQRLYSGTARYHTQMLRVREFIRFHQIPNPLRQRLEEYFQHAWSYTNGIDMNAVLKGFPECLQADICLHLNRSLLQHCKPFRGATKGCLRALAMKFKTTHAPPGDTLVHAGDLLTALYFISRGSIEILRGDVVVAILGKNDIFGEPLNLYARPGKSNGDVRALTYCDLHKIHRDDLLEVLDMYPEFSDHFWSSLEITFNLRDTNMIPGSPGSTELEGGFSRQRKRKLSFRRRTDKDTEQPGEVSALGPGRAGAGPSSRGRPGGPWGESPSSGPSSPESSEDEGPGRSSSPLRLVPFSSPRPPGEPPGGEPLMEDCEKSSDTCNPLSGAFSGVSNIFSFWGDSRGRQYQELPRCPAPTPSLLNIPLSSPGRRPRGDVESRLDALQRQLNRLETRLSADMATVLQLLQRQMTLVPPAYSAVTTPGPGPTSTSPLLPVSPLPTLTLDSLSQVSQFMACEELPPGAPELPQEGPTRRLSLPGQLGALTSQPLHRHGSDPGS

Row | SMILES | hERG current change (%, negative = inhibition) at 10uM
1 | CCN(Cc1ccccc1)C(=O)CSc1nncn1C | 16.5%
2 | Cc1nc(NC(=O)c2ccco2)sc1C(=O)Nc1ccc(Br)cc1 | -0.952%
3 | O=S(=O)(c1cccs1)N1CCC(CO)(Cc2ccc(Cl)cc2)CC1 | -7.74%
4 | COC(=O)c1ccc2nc(C)cc(Nc3ccc(N(C)C)cc3)c2c1.Cl | -67.1%
5 | N#Cc1c(-c2ccc(Cl)cc2)cc(-c2cccs2)nc1SCC(=O)O | 29.7%
6 | CC1CCc2sc(C(=O)NN=C3CCC(c4ccccc4)CC3)cc2C1 (stereo not drawn) | 10.6%
7 | COc1ccccc1-c1noc(Cn2cc(S(=O)(=O)N3CCCC3)ccc2=O)n1 | -3.72%
8 | O=C(c1cccc(Cl)c1)c1nn(-c2ccccc2)c(=O)cc1C(F)(F)F | 7.57%
9 | Cc1ccc(NC(=O)NC2CCCN2S(=O)(=O)c2ccc(Cl)cc2)cc1 (stereo not drawn) | -16.4%
10 | COCCn1c(SCc2ccc(Cl)cc2)nc2c1c(=O)[nH]c(=O)n2C | -16.5%
11 | CCC(C)Sc1ccc([C@H]2N[C@@](CC(C)C)(C(=O)OC)[C@H]3C(=O)N(CC)C(=O)[C@@H]23)cc1.O=C(O)C(F)(F)F (stereo partly drawn) | -13.9%
12 | CC(C)NC(=O)N(O)C1N(C(C)C)C(=O)N(Cc2ccc3c(c2)OCO3)C1(C)C (stereo not drawn) | 12.2%
13 | Cn1c2ccccc2c(=O)c2c(=O)n(C3CCCCC3)c(-c3cccs3)nc21 | -66.1%
14 | O=C(NNC(=O)c1ccccc1O)c1ccc(-c2ccc([N+](=O)[O-])cc2)o1 | -7%
15 | Cc1ccc(S(=O)(=O)NC(=NC(Cc2ccccc2)C(=O)O)c2ccccc2)cc1 (stereo not drawn) | 7.98%
16 | O=C(Nc1ccc(N2CCOCC2)cc1)c1ccc2nc(-c3ccco3)c(-c3ccco3)nc2c1 | -0.891%
17 | CC1(C)Cc2ccccc2C(=O)N1 | 12.6%
18 | Cc1cc(NC(=O)CCCn2ccc([N+](=O)[O-])n2)n(Cc2ccc(F)cc2)n1 | 4.85%
19 | O=C(COc1ccccc1[N+](=O)[O-])N(Cc1ccco1)C1CCS(=O)(=O)C1 (stereo not drawn) | -6.3%
20 | CC(=O)c1cccc(NC(=O)C2CCN(C(=O)c3ccccc3Cl)CC2)c1 | -0.359%
21 | NC(=O)C1CCN(C(=O)c2ccc(Cl)c(S(=O)(=O)NCc3ccco3)c2)CC1 | 7.09%
22 | Cc1ccc2nc(C)cc(N3CCOCC3)c2c1.Cl | -23.8%

Row | SMILES | hERG current change (%, negative = inhibition) at 10uM
23 | CC1(C)CC(=O)CC2(C1)NCC(c1ccccc1)c1c2[nH]c2ccccc12.Cl (stereo not drawn) | -85.8%
24 | Cc1nc(N2CCOCC2)sc1C=O | 4.26%
25 | O=C(O)CCc1nc2ccccc2n(CCc2ccccc2)c1=O | 4.04%
26 | CC1CCCC(C)N1S(=O)(=O)c1ccc(NC(=O)CCn2cnc3ccccc3c2=O)cc1 (stereo not drawn) | 7.94%
27 | Cc1ccc(-c2ccc(=O)n(CC(=O)NCCCN3CCCCC3)n2)cc1 | -9.02%
28 | Cc1ccc(C)c(NC(=O)C(=O)NCCCN2CCOCC2)c1 | -1.45%
29 | COC(=O)c1[nH]c2c(c1C)C(=O)CC(c1cccs1)C2 (stereo not drawn) | 8.52%
30 | Cc1cccc(C)c1NC(=S)N1CCCCCC1 | 11.7%
31 | CC1CCCC(C)N1C(=O)COC(=O)c1cccc(S(=O)(=O)N(C)c2ccccc2)c1 (stereo not drawn) | -27.2%
32 | COc1ccc2oc(=O)cc(-c3cc4ccccc4o3)c2c1 | 0.523%
33 | COc1nsnc1NS(=O)(=O)c1ccc(NC(=S)NC(=O)c2ccncc2)cc1 | 7.08%
34 | COc1ccc(C2c3c(ncn(CCCO)c3=N)Oc3ccc4ccccc4c32)cc1 (stereo not drawn) | -33.9%
35 | COc1ccc(-n2c(-c3ccc(Br)cc3)c[n+]3c2CCC3)cc1.[Br-] | -56%
36 | Nc1cnn(-c2ccccc2)c(=O)c1Cl | 13.8%
37 | CC1(C)c2[nH]c3ccccc3c2C[C@@H]2C(=O)N(Cc3ccc(F)cc3)C(=O)N21 | -0.197%
38 | Cc1cc(C)cc(NC(=O)C2CCCN(S(=O)(=O)c3cnc[nH]3)C2)c1 (stereo not drawn) | -3.46%
39 | O=C([O-])/C=C/C(O)c1ccc(Cl)cc1.[Na+] (stereo not drawn) | 18.7%
40 | Cc1ccc(-c2nc(CC(=O)Nc3cccc(S(=O)(=O)NC4=NCCC4)c3)cs2)cc1 | 6.43%
41 | CCN(CC)c1ccc(/C=C/c2cc(-c3ccccc3)c3ccccc3n2)cc1 | 5.29%
42 | Cc1cc(C)nc(NC(=O)c2ccc(C)o2)n1 | 18.3%
43 | COc1cc(C(=O)N2CCCCCCC2)ccc1OC1CCN(C(C)=O)CC1 | -49%
44 | O=C1NC2NC(=O)N([N+](=O)[O-])C2N1 (stereo not drawn) | 14.6%

Row | SMILES | hERG current change (%, negative = inhibition) at 10uM
45 | Cc1cc(C#N)c2ccccc2n1 | 11.2%
46 | CCCCOC(=O)CSc1nc(N)c(C#N)c(-c2ccc(OCC)cc2)c1C#N | 15.7%
47 | CCOC(=O)Cn1nnc(-c2ccc(OCC(C)C)cc2)n1 | 10.2%
48 | CCOc1cc(CNc2ccc3c(c2)OCCO3)cc(Br)c1OCC(N)=O | -17.6%
49 | COc1cc(CCC(=O)N2CCN(c3ccc(N4CCOCC4)nn3)CC2)cc(OC)c1OC | -9.65%
50 | Cc1ccc(NC(=O)NCCc2ccc(S(N)(=O)=O)cc2)cc1 | 17.5%
51 | N#CC1=C2SCN(Cc3ccco3)CN2C(=O)CC1c1ccc(Cl)cc1 (stereo not drawn) | 11.7%
52 | CCc1nnc(NC(=O)c2cc(-c3ccccc3)nn2-c2ccccc2)s1 | 10.3%
53 | O=C(O)c1ccc2c(c1Sc1ccccc1)C(=O)c1ccccc1C2=O | -4.82%
54 | CCc1ccccc1NC(=O)N1C[C@H]2C[C@@H](C1)c1cccc(=O)n1C2 | 12.7%
55 | CCc1ccc(NC(=O)CCn2nc(C)c(S(=O)(=O)N3CCCCC3)c2C)cc1 | -22.7%
56 | O=C(Nc1nnc(C2=COCCO2)o1)c1ccc(F)cc1 | 14.2%
57 | CCCN1CCN(CCNC(=O)Nc2cc(C)ccc2C)CC1 | -39.8%
58 | Nc1nonc1-n1nnc(C(=O)N/N=C/c2ccc(OCc3ccccc3)cc2)c1COc1ccc(F)cc1 | -5.88%
59 | CN(CC(=O)Nc1cccc(F)c1)CC(=O)Nc1cccc([N+](=O)[O-])c1 | -39.7%
60 | COc1ccc(C)c2sc(N(CCCN(C)C)C(=O)c3ccc(S(=O)(=O)N(C)C)cc3)nc12.Cl | -61.5%
61 | O=C(NCCc1ccccc1Cl)c1ccc2nc3ccccc3c(=O)n2c1 | -1.14%
62 | COc1cc2c(cc1OC)CN(C(=O)c1sccc1C)CC2 | 1.41%
63 | O=C(CSc1nc(-c2ccccc2)nc2c1CCCC2)N1CCOCC1 | -1.06%
64 | Cc1ccc(NC(=O)CN(C)C(=O)c2ccc(OCc3cn4ccccc4n3)cc2)cc1 | 0.0233%
65 | COc1cc2c(cc1OC)C(CSc1ccccc1C(=O)O)=NC(C)(C)C2 | 17.3%
66 | COc1ccc(C2CC(C(F)(F)F)n3nc(C(=O)NCc4c(C)nn(C)c4C)c(Cl)c3N2)cc1 (stereo not drawn) | -7.16%

Row | SMILES | hERG current change (%, negative = inhibition) at 10uM
67 | COc1ccc(CC2C(=O)OC(C)(C)OC2=O)cc1 | 1.73%
68 | C=C1c2ccccc2NC(=O)N1c1ccc(OC)cc1 | 12.8%
69 | CC(=O)N1CCc2cc3nc(C)cc(C)c3cc21 | -24%
70 | CCS(=O)(=O)c1ccc(O)c(NC(=O)/C=C/c2ccc(Cl)cc2)c1 | -28.5%
71 | CCOC(=O)Nc1ccc(S(=O)(=O)NCc2ccccc2)cc1 | 8.38%
72 | Cc1ccc(NC(=O)c2c([N+](=O)[O-])c(C(C)(C)C)nn2C)c(C)c1 | 20.7%
73 | O=C(O)c1ccc(C2SCC(=O)N2Cc2ccccc2)cc1 (stereo not drawn) | -0.7%
74 | COc1ccc(C(=O)NNC(=S)NC(=O)c2ccc(F)cc2)cc1Br | 24.8%
75 | CC(=O)NS(=O)(=O)c1ccc(NC(=O)C2C3C=CC(C3)C2C(=O)O)cc1 (stereo not drawn) | 22.9%
76 | Cc1nc(NC(CC(C)C)C(=O)O)c2nc(C)oc2n1 (stereo not drawn) | -3.03%
77 | O=C(/C=C/c1ccccc1)c1c[nH]c2ccccc12 | -2.65%
78 | O=C(O)C(c1ccccc1)c1ccccc1 | 14.5%
79 | COc1ccc(C(CNc2nc(-c3cccnc3)nc3ccccc23)N(C)C)cc1 (stereo not drawn) | -59.2%
80 | O=C1OC(Cc2ccccn2)C(O)=C1C1=NCCCCN1 (stereo not drawn) | -8.5%
81 | CCc1nnc(NC(=O)CCC(=O)N2CCN(Cc3ccc(OC)c(F)c3)CC2)s1 | 17.8%
82 | COc1cc(-c2nc(CCNC(=O)c3ccco3)cs2)cc(OC)c1OC | -24.7%
83 | O=C(OCc1cccc(F)c1)c1ccc2c(=O)n3c(nc2c1)CCC3 | -29.5%
84 | Cc1ccc(C(C#N)c2ccc(Cl)nn2)cc1 (stereo not drawn) | 2.24%
85 | C/C(=N\NC(=S)NCc1ccccc1)c1ccc2c(c1)OCCO2 | 7.77%
86 | CCOC(=O)C1(Cc2cccc(OC)c2)CCN(Cc2cccnc2)CC1 | -16.4%
87 | Br.CCCCCCCCCn1ccc(=N)cc1 | -66%
